Assay results from a collection of fitness landscapes (doi:10.1016/j.celrep.2020.107928).
The full ranking holds about 81,000 sequences; the median of “one-hybrid fitness for binding parS DNA” is about -0.17, and the highest 2% start at about 0.51. The list shows a part of the results.

B1: Caulobacter ParB omega fusion; a variant is named by its letters at X, in order, B8GW30 (parent)
chain: MESVVVGEPGMSEGRRGLGRGLSALLGEVDAAPAQAPGEQLGGSREAPIEILQRNPDQPRRTFREEDLEDLSNSIREKGVLQPILVRPSPDTAGEYQIVAGERAWRAAQRAGLKTVPIMVRELDDLAVLEIGIIENVQRADLNVLEEALSYKVLMEKFERTQENIAQTIGKSXSHVANXMRLLXLPDEVQSYLVSGELTAXHARAIAAAADPVALAKQIIEGGLSVRETEALARKAPNLSAGKSKGGRPPRVKDTDTQALESDLSSVLGLDVSIDHRGSTGTLTITYATLEQLDDLCNRLTRGI

Variants of: B1
Assay: one-hybrid fitness for binding parS DNA (scaled: cognate 1, non-cognate 0); higher = stronger binding
Settings: with parS DNA site
Procedure, shortened: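 Fitness is the rescaled log change in variant-to-wild-type read ratio, measured by Illumina sequencing of plasmids before and after bacterial one-hybrid selection. The scale puts cognate at 1 and non-cognate at 0. Selection of Caulobacter ParB libraries, four specificity codons randomised, took place in E. coli USO with a HIS3 reporter, site 19 bp from the promoter, over 48 hours at 37°C on M9-minus-histidine with 0.1 mM IPTG and 5 mM 3-AT.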

Variant	one-hybrid fitness for binding parS DNA
SRPL	≤ 0.2
QPGP	≤ 0.2
TTSM	≤ 0.2
TAII	≤ 0.2
RCYR	≤ 0.2
FTPT	≤ 0.2
SCLP	≤ 0.2
CAYF	≤ 0.2
VDFT	≤ 0.2
DDMC	≤ 0.2
FVHL	≤ 0.2
TPAL	≤ 0.2
TMTM	≤ 0.2
QTYF	≤ 0.2
TMGR	≤ 0.2
MQTL	≤ 0.2
GNNW	≤ 0.2
ECNI	≤ 0.2
YVRT	≤ 0.2
SELC	≤ 0.2
LAFQ	≤ 0.2
AVTI	≤ 0.2
HRSF	≤ 0.2
FYVW	0.24
HWLL	≤ 0.2
MTRN	≤ 0.2

Variant	one-hybrid fitness for binding parS DNA
ERWS	≤ 0.2
TAFC	≤ 0.2
MLPP	≤ 0.2
SSSE	≤ 0.2
TNKS	≤ 0.2
QVEG	≤ 0.2
PGHT	≤ 0.2
MHHS	≤ 0.2
VKSQ	≤ 0.2
PQQT	≤ 0.2
EAYT	≤ 0.2
KNEM	≤ 0.2
GNIK	≤ 0.2
DTHE	≤ 0.2
TCLS	≤ 0.2
KSCN	≤ 0.2
SERA	≤ 0.2
PGSC	≤ 0.2
MQAG	≤ 0.2
TTYG	≤ 0.2
CPVF	≤ 0.2
YNLS	≤ 0.2
RRTL	≤ 0.2
REDD	≤ 0.2
PLAL	≤ 0.2
TLDA	≤ 0.2

Variant	one-hybrid fitness for binding parS DNA
KSME	≤ 0.2
RGFH	≤ 0.2
DYYI	≤ 0.2
WPRC	≤ 0.2
FKLL	≤ 0.2
LRHH	≤ 0.2
ANWR	≤ 0.2
CRII	≤ 0.2
GIRC	≤ 0.2
APGS	≤ 0.2
TAFF	≤ 0.2
VSGI	≤ 0.2
IGSI	≤ 0.2
FSPT	≤ 0.2
LSIN	≤ 0.2
LVFS	≤ 0.2
IVRR	≤ 0.2
DAGW	≤ 0.2
GQKG	≤ 0.2
QKGL	≤ 0.2
VQHC	≤ 0.2
ICTS	≤ 0.2
IQDG	≤ 0.2
RFGH	0.245
RWWS	0.644
HCRG	≤ 0.2

Variant	one-hybrid fitness for binding parS DNA
SPQK	≤ 0.2
RQMM	0.33
LDMP	≤ 0.2
TPGR	≤ 0.2
HHDY	≤ 0.2
FKQS	≤ 0.2
QRDT	≤ 0.2
DRPF	≤ 0.2
ALSM	≤ 0.2
TWFP	≤ 0.2
AIGY	≤ 0.2
FLFV	≤ 0.2
QPDI	≤ 0.2
NAEC	≤ 0.2
DPTY	≤ 0.2
FPNC	≤ 0.2
ASWS	≤ 0.2
SSKH	≤ 0.2
MDAT	≤ 0.2
QVIQ	≤ 0.2
PFHG	≤ 0.2
AAKS	≤ 0.2
ANSY	≤ 0.2
SSDI	≤ 0.2
ICQG	≤ 0.2
PKYV	≤ 0.2

Variant	one-hybrid fitness for binding parS DNA
IACY	≤ 0.2
RQHW	0.207
PLVG	≤ 0.2
ILWS	≤ 0.2
PVTP	≤ 0.2
EPGG	≤ 0.2
GKKW	≤ 0.2
HHIS	≤ 0.2
ITNQ	≤ 0.2
RVVK	≤ 0.2
PTQP	≤ 0.2
FKNG	≤ 0.2
VQHG	≤ 0.2
NCDT	≤ 0.2
GTAV	≤ 0.2
WTNF	≤ 0.2
NVRY	≤ 0.2
MQHN	≤ 0.2
HEKE	≤ 0.2
LPFV	≤ 0.2
CTRD	≤ 0.2
QRTK	≤ 0.2
SYSV	≤ 0.2
NAKC	≤ 0.2
YQPT	≤ 0.2
YGTM	≤ 0.2

Variant	one-hybrid fitness for binding parS DNA
PIFE	≤ 0.2
SERD	≤ 0.2
PYHP	≤ 0.2
MYHR	≤ 0.2
YTSP	≤ 0.2
GDAR	≤ 0.2
LSDA	≤ 0.2
IIGF	≤ 0.2
HTMG	≤ 0.2
RHVV	≤ 0.2
TWNL	≤ 0.2
RNRT	0.786
GMVG	≤ 0.2
GSHG	≤ 0.2
ANSV	≤ 0.2
AVLK	≤ 0.2
QIIS	≤ 0.2
TNST	≤ 0.2
GENQ	≤ 0.2
FKLR	≤ 0.2
PWVS	≤ 0.2
ESTQ	≤ 0.2
QAEP	≤ 0.2
